{"source": "PubChem BioAssay AID651820", "about": "(National Center for Advancing Translational Sciences (NCATS), 2012)", "note": "The whole screen tested about 340,000 compounds, of which about 12,000 (3.5%) were called active. Inconclusive means that the source gave no clear call. Such entries were picked first, then a sample of the others. The call rests on the fitted dose curve; in most records, active means well fitted inhibition curve with a large enough effect; inconclusive means small, poorly fitted or top-dose-only effect, or another doubt; inactive means no such curve, though single readings can be large or run the other way. Potencies of inconclusive entries are left out as doubtful fits. On the % scale 0 is the no-effect control and ±100 the full control effect; potency means the concentration at half of the fitted maximal effect; tags describe the fitted curve by direction and shape."}
{"experiment": "qHTS Assay for Inhibitors of Hepatitis C Virus (HCV)", "conditions": "Huh7.5.1 HCVcc-Cre (HCVcc is cell-culture hepatitis C virus) infection, luciferase reporter, 44 h; activity change, negative = inhibition: at 41.8 µM (top of the series) unless noted", "procedure,_shortened": "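A cell-based infection assay in which seeded cells (1,000 per well) receive test compound after 4 h, are inoculated with HCVcc-Cre at approximately 0.5 moi, and are incubated 44 h before luminescence detection.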"}
{"smiles": "COc1cccc(-c2onc3ccc(C4(C)OCCO4)cc23)c1", "Potency": "inconclusive [inhibitor, single point]"}
{"smiles": "O=C(CCSc1nccn1Cc1ccccc1)N1CCOCC1", "Potency": "inactive"}
{"smiles": "O=C(Nc1ccc(S(=O)(=O)N2CCCC2)cc1)c1cc(F)c(F)cc1Cl", "Potency": "inconclusive [inhibitor, single point]"}
{"smiles": "Cc1ccc2[nH]c(=O)c(CN(Cc3nnnn3Cc3ccccc3)C3CCCC3)cc2c1", "Potency": "inconclusive [inhibitor, single point]"}
{"smiles": "S=C1SCN(CC2CC2)CN1CC1CC1", "Potency": "inconclusive [inhibitor, single point]"}
{"smiles": "CC1(c2nnc(Cc3ccccc3)o2)CC(c2ccncc2)=NO1", "note": "(stereo unspecified)", "Potency": "inactive"}
{"smiles": "O=C(c1ccco1)c1cn(Cc2ccc(Cl)cc2)c2ccccc12", "Potency": "inconclusive [inhibitor, single point]"}
{"smiles": "O=C(NC1CCCCC1)C(c1ccncc1)N(C(=O)c1csnn1)c1ccc(F)cc1", "note": "(stereo unspecified)", "Potency": "inactive"}
{"smiles": "Cc1sc(NC(=O)c2ccccc2)c(C(=O)c2ccccc2)c1C", "Potency": "inactive"}
{"smiles": "CC1CCc2c(sc(NC(=O)c3ccc(Cn4cc(Br)cn4)o3)c2C(N)=O)C1", "note": "(stereo unspecified)", "Potency": "inconclusive [inhibitor, full curve]"}
{"smiles": "CN(C)C(CNC(=O)c1cc2ccccc2oc1=O)c1ccccc1", "note": "(stereo unspecified)", "Potency": "inactive"}
{"smiles": "CCOc1ccc2[nH]c3c(NCC(C)C)ncnc3c2c1", "Potency": "inconclusive [inhibitor, single point]"}
{"smiles": "CCOc1cc(C(=O)N2CCC(CC3CC(c4ccc(Cl)cc4)=NO3)(C(=O)NCC3CCCCC3)CC2)cc(OCC)c1OCC", "note": "(stereo unspecified)", "Potency": "inconclusive [inhibitor, full curve]"}
{"smiles": "CCc1ccc(C(=O)NNC(=O)C2CCN(c3ncnc4sc(C)c(C)c34)CC2)cc1", "Potency": "active: 12.6 µM"}
{"smiles": "CCOC(=O)[C@H]1[C@H]2COc3ccccc3[C@@H]2N2C(=O)c3ccc(Cl)cc3NC(=O)[C@@]12C", "Potency": "inconclusive [inhibitor, partial curve]"}
{"smiles": "COc1cc(NC(=O)c2cccs2)c(C(=O)OCC(=O)c2cc(C)n(-c3ccc(F)cc3)c2C)cc1OC", "Potency": "inactive"}
{"smiles": "CNC[C@H](Cc1ccccc1)NC[C@@H](Cc1cccc2ccccc12)NCCc1ccc(C)cc1", "Potency": "inactive"}
{"smiles": "CN(C(=O)COC(=O)CNC(=O)C12CC3CC(CC(C3)C1)C2)C1CCS(=O)(=O)C1", "note": "(stereo unspecified)", "Potency": "inactive"}
{"smiles": "Cn1c(=O)c([N+](=O)[O-])c(N2CCN(Cc3ccc4c(c3)OCO4)CC2)c2ccccc21", "Potency": "inactive"}
{"smiles": "COc1ccc(CNc2nc3c(c(=O)n(Cc4ccc(F)cc4)c(=O)n3C)n2C)cc1", "Potency": "inconclusive [inhibitor, single point]"}
{"smiles": "COc1ccccc1N1CCN(/N=C/C=C/c2ccccc2[N+](=O)[O-])CC1", "Potency": "inconclusive [inhibitor, partial curve]"}
{"smiles": "CN(C(=O)c1ccco1)c1nc(-c2ccc(F)cc2)cs1", "Potency": "inactive"}
{"smiles": "CC(C)=CCC[C@](C)(O[C@@H]1O[C@H](CO[C@@H]2OC[C@@H](O)[C@H](O)[C@H]2O)[C@@H](O)[C@H](O)[C@H]1O)C1CC[C@]2(C)C1[C@H](O)CC1[C@@]3(C)CC[C@H](O[C@@H]4O[C@H](CO)[C@@H](O)[C@H](O)[C@H]4O)C(C)(C)C3CC[C@]12C", "note": "(stereo partly specified)", "Potency": "inactive"}
{"smiles": "COc1ccc(-c2csc(NC(=O)c3cc(C)oc3C)n2)cc1OC", "Potency": "inconclusive [inhibitor, partial curve]"}
{"smiles": "O=C(Cc1nnc(NC(=O)Nc2ccccc2F)s1)NCc1ccccc1", "Potency": "inactive"}
{"smiles": "COc1ccc(CCNCc2c(OC)ccc3ccccc23)cc1OC", "Potency": "active: 11.2 µM"}
{"smiles": "O=C1C2C3C=CC(C3)C2C(=O)N1CCN1CCN(S(=O)(=O)c2ccc3ccccc3c2)CC1", "note": "(stereo unspecified)", "Potency": "inconclusive [inhibitor, single point]"}
{"smiles": "O=C(CN1CCN(c2ccc(O)cc2)CC1)Nc1ccccc1C(=O)NCCc1ccccc1", "Potency": "active: 12.6 µM"}
{"smiles": "O=C(OCc1nc2scc(-c3ccccc3)c2c(=O)[nH]1)c1ccco1", "Potency": "inconclusive [inhibitor, single point]"}
{"smiles": "Cc1ccccc1Cn1cnc2c(oc3ccccc32)c1=O", "Potency": "inactive"}
{"smiles": "COc1ccccc1C(=O)Nc1ccc2c(c1)nc(CCNC(C)=O)n2C", "Potency": "inconclusive [inhibitor, full curve]"}
{"smiles": "COc1cc(OC)cc(-c2cc3nc(C4CCN(C(=O)OC(C)(C)C)CC4)cc(=O)n3[nH]2)c1", "Potency": "inconclusive [inhibitor, single point]"}
{"smiles": "CCOc1ccc(S(=O)(=O)N(CC(=O)Nc2cccnc2)c2ccc(F)cc2)cc1", "Potency": "inconclusive [inhibitor, single point]"}
{"smiles": "Cc1cc(N2CCN(S(=O)(=O)c3ccccc3)CC2)c2ccccc2n1", "Potency": "inconclusive [inhibitor, full curve]"}
{"smiles": "COC(=O)c1sc(NC(C)=O)c(C(=O)OC)c1C", "Potency": "inconclusive [inhibitor, single point]"}
{"smiles": "O=c1[nH]nc(SCc2nnc(-c3cccc(Cl)c3)o2)n1C1CCCCC1", "Potency": "inconclusive [inhibitor, single point]"}
{"smiles": "CCOC(=O)c1c(NC(=S)NCc2ccccc2)sc2c1CCN(C(=O)OCC)C2", "Potency": "inconclusive [inhibitor, single point]"}
{"smiles": "Cc1ccc(C(=O)NNC(=S)NC(=O)c2ccco2)cc1", "Potency": "inconclusive [inhibitor, partial curve]"}
{"smiles": "COc1ccc(S(=O)(=O)N2CCCC2CNC(=O)C(=O)NCc2ccc3c(c2)OCO3)cc1", "note": "(stereo unspecified)", "activity change, negative = inhibition": "inconclusive: -44.3% [inhibitor]"}
{"smiles": "O=c1c(C(c2ccc(Br)cc2)c2c(O)nc3n(c2=O)CCCS3)c(O)nc2n1CCCS2", "Potency": "inactive"}
{"smiles": "O=c1[nH]c2cc3c(cc2cc1CN(Cc1cccnc1)Cc1nnnn1Cc1ccco1)OCCO3", "Potency": "inactive"}
{"smiles": "CC(CCc1ccccc1)NC(=O)C1CCN(S(=O)(=O)c2ccc(F)cc2)CC1", "note": "(stereo unspecified)", "Potency": "inconclusive [inhibitor, single point]"}
{"smiles": "COc1ccc(Cn2c(-c3ccc(C)cc3)c[n+]3ccccc23)cc1", "Potency": "inconclusive [inhibitor, full curve, poor fit]"}
{"smiles": "Cc1ccc(-c2nc3ccccc3n3nnnc23)cc1", "Potency": "inconclusive [inhibitor, single point]"}
{"smiles": "COc1ccc(C2CC(c3ccccc3)=NN2C(=O)COC(=O)c2cccc(S(=O)(=O)N(C)C)c2)cc1", "note": "(stereo unspecified)", "Potency": "inconclusive [inhibitor, partial curve]"}
{"smiles": "CCCCN(CC)CCNC(=O)c1cc2c(=O)[nH]c3ccc(C)cc3c2s1", "Potency": "inconclusive [inhibitor, single point]"}
{"smiles": "CSc1cccc(Nc2ccc(S(=O)(=O)N3CCOCC3)cc2[N+](=O)[O-])c1", "Potency": "inconclusive [inhibitor, single point]"}
{"smiles": "CCOC(=O)C(C)(C)N(Cc1cccc(C)c1)S(=O)(=O)c1cccc([N+](=O)[O-])c1", "Potency": "inconclusive [inhibitor, single point]"}
{"smiles": "Cc1ccc(C(C)C)cc1OCCn1cncn1", "Potency": "inactive"}
{"smiles": "COC(=O)C1CCN(Cc2ccc(OCCCN3CCN(c4ccc([N+](=O)[O-])cc4)CC3)cc2)CC1", "Potency": "inconclusive [inhibitor, single point]"}
{"smiles": "COc1cccc(C2CCN(CC(=O)Nc3cc(Cl)ccc3OC)CC2O)c1", "note": "(stereo unspecified)", "Potency": "inconclusive [inhibitor, single point]"}
{"smiles": "Cn1cc(C(=O)NC2CCCCC2)c(=O)c2cc(S(=O)(=O)N3CCCC3)ccc21", "Potency": "inactive"}
{"smiles": "O=C(Nc1cccc2ncccc12)c1ccc(-c2ccc(Cl)cc2Cl)o1", "Potency": "inconclusive [inhibitor, single point]"}
{"smiles": "CCOc1ccc(NC(=O)CN(C)C(=O)c2ccc(COc3ccccc3)cc2)cc1OCC", "Potency": "inconclusive [inhibitor, partial curve]"}
{"smiles": "CCc1nc(SCC(=O)c2ccc(C)c(C)c2)n[nH]1", "Potency": "inconclusive [inhibitor, single point]"}
{"smiles": "O=C1c2c(O)ccc(O)c2C(=O)c2c(NCCNCCO)ccc(NCCNCCO)c21", "Potency": "active: 1.12 µM"}
{"smiles": "O=C(CSc1nc(Nc2ccccc2)nc(N2CCOCC2)n1)Nc1cc(Cl)ccc1O", "Potency": "active: 10 µM"}
{"smiles": "CCOC(=O)Nc1ccc2c(c1)C(=NNC(N)=S)c1ccccc1-2", "Potency": "inconclusive [inhibitor, partial curve]"}
{"smiles": "CCOC(=O)c1cnc(-n2nc(C)cc2C)nc1Nc1ccc(O)cc1", "Potency": "inconclusive [inhibitor, full curve]"}
{"smiles": "CC(NC(=O)Nc1cccc([N+](=O)[O-])c1)c1ccc2c(c1)OCO2", "note": "(stereo unspecified)", "Potency": "inconclusive [inhibitor, single point]"}
{"smiles": "CCC(C)C(=O)Nc1nc(C)c(-c2csc(Nc3cc(Cl)ccc3OC)n2)s1", "note": "(stereo unspecified)", "Potency": "inconclusive [inhibitor, full curve]"}
{"smiles": "O=C(NNC(=O)C12CC3CC(CC(C3)C1)C2)c1ccccn1", "Potency": "inconclusive [inhibitor, partial curve]"}
{"smiles": "CCOc1ccccc1NC(=O)C(OC(=O)c1cnccn1)c1ccccc1", "note": "(stereo unspecified)", "Potency": "inconclusive [inhibitor, single point]"}
{"smiles": "Cc1cc2c3c(ccc(C)c3n1)N=CN2c1ccccc1", "Potency": "inconclusive [inhibitor, single point]"}
{"smiles": "COc1ccc(COC[C@H](C)[C@H](O)[C@@H](C)[C@H]2OC(=O)[C@@H]2C)cc1", "Potency": "inactive"}
{"smiles": "O=C(Nc1ccc(CN2CCOCC2)cc1)c1ccc2ccccc2c1", "Potency": "inconclusive [inhibitor, single point]"}
